The campaign covered roughly 310,000 compounds. About 2,200 (0.71%) showed an effect of 50% or more. Effects have a minus sign here. The list shows a part of the results.
Molecular target: human ether-à-go-go-related gene (hERG) potassium channel (human, UniProt Q12809)
Assay: primary screen, population patch clamp on CHO cells stably expressing hERG

human ether-à-go-go-related gene (hERG) potassium channel, sequence (Q12809 whole entry, looked up): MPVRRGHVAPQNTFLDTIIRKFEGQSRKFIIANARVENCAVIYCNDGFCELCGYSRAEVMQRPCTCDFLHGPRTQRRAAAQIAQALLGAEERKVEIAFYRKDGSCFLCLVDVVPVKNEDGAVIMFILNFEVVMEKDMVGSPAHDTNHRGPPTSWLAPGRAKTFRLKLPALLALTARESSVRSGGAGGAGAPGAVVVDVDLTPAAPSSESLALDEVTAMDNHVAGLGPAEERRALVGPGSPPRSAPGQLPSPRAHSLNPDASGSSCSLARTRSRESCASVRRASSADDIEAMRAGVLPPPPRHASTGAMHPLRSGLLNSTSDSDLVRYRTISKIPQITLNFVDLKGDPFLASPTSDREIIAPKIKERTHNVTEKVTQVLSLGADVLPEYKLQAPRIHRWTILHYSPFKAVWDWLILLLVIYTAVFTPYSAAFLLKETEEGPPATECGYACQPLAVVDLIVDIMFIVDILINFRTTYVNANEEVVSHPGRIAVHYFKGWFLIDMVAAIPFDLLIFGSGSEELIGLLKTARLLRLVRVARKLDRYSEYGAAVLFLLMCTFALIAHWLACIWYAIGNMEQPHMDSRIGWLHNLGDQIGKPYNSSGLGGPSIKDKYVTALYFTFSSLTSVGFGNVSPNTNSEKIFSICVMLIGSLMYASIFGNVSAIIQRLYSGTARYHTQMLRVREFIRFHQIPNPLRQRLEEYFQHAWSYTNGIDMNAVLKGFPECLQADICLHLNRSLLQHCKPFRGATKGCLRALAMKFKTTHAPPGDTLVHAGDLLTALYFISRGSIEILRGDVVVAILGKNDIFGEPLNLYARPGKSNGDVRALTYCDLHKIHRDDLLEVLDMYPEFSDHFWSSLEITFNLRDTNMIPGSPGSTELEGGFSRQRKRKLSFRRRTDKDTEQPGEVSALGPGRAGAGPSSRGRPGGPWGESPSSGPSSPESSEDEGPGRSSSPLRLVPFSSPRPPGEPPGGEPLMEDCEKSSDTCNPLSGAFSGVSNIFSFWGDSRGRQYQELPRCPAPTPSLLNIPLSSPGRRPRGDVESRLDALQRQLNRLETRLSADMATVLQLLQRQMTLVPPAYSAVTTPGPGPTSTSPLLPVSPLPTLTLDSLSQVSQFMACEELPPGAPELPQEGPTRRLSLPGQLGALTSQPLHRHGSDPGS

Compound	hERG current change (%, negative = inhibition) at 1uM [%]
CCc1c(C)sc(NC(=O)c2ccco2)c1C(=O)N1CCCCC1	-1.15
Cc1nn(C(C)(C)C)c(OC(=O)c2cccs2)c1S(=O)(=O)c1ccccc1	-3.07
CC(=O)OC1=C(O)C(=O)c2ccccc2C1=O	4.37
COc1ccc(CN(CC(=O)NCc2ccc(F)cc2)C(=O)CCC(=O)Nc2ccccn2)cc1	0.936
COc1ccc(-c2nnc(SCC#N)o2)cc1	7.8
O=C(Nc1ccc(-c2nnc3n2CCCCC3)cc1)c1cc2ccccc2o1	-22.4
Cc1ccc(NC(=O)CSCC(=O)N2CCN(Cc3ccc4c(c3)OCO4)CC2)cc1	0.61
O=C(Nc1ccccc1)Nc1nc(-c2ccc(F)c(F)c2)cs1	17.8
CCCSc1cc(Cl)nc(N)n1	5.31
O=C1[C@H]2[C@@H](c3ccc(F)cc3)N3C(=O)N(c4cccc(Br)c4)C(=O)[C@@]3(Cc3ccccc3)[C@H]2C(=O)N1C1CCCCC1	4.11
O=C(CCCSc1nc2ccccc2[nH]1)Nc1nnc(C2CC2)s1	8.8
C=CCc1cc(Cl)ccc1OCCN(C)C.O=C(O)C(=O)O	-1.86
O=C1CCCC2=C1C(c1ccccc1)CC(=O)N2c1ccccc1 (centres unmarked)	4.51
CC(C)C[C@H](NC(=O)[C@@H]1Cc2c([nH]c3ccccc23)C2c3ccccc3C(=O)N21)C(=O)NCC1CCCO1 (some centres unmarked)	-1.54
O=C(CCn1c(=O)oc2ccccc21)NCCC1=CCCCC1	13
CN1CCC(N(C)C(=O)COc2ccc(S(=O)(=O)N3CCOCC3)cc2)CC1	0.596
Cc1ccc(NC(=O)C(SCC(=O)O)c2ccccc2)cc1C (centres unmarked)	2.37
Cl.ClCCNc1nc2ccc(Cl)cc2[nH]1	13.3
COc1ccc(OC)c(NC(=O)CCN2CCN(Cc3ccccc3)CC2)c1.Cl	-2.13
Cc1nn(C)cc1/C=C1\SC(=S)NC1=O	9.1
CCCCn1c(O)c(C(CC)=NCCN2CCOCC2)c(=O)[nH]c1=O	2.73
CC(=O)c1ccc(OCC(O)CN2CC(C)OC(C)C2)cc1.Cl (centres unmarked)	6.96

Compound	hERG current change (%, negative = inhibition) at 1uM [%]
Cc1c(NC(=S)NC(=O)c2ccc(COc3ccccc3)cc2)cccc1C(=O)O	11.1
COc1cccc(NC(=O)N2CCCc3ccccc32)c1	13.9
CCCCCc1ccc(-c2cn(CC3CCCCC3)nn2)cc1	12.5
Cc1ccc(NC(=O)Cn2nc(C)c(S(=O)(=O)N(C)C)c2C)cc1C	6.76
Cc1oc(-c2cccs2)nc1CN1CCN(C2CCCC2)C(CCO)C1 (centres unmarked)	6.8
C[C@@H](CN=[N+]=[N-])CN1CC[C@H](NC(=O)OCc2ccccc2)CCC1=O	-0.382
Cc1ccc(C)n1CCN1CCN(S(=O)(=O)c2ccc(F)cc2F)CC1	10.8
CCC(C)(C)C1CCC2(CC1)NC(=O)N(CC(=O)N1CCN(C(=O)c3ccco3)CC1)C2=O (centres unmarked)	6.27
C=CCn1c(=O)c2ccccc2n2c(SCC(=O)O)nnc12	16.3
Cc1ccc(N=Nc2c(C)[nH]n(C(N)=S)c2=O)cc1	9.85
COc1cccc(NC(=O)c2cncs2)c1	15.4
COC(=O)N/N=C\C=C\c1ccc2c(c1)OCO2	5.62
CCCc1nc2ccccc2c(C(=O)O)c1CC	3.99
COc1cccc(N2CCN(C(=O)CC(C)(C)CC3=NS(=O)(=O)c4ccccc4N3)CC2)c1	9.19
Cc1ccc2ccccc2c1COC(=O)c1nonc1N	4.04
N#CCC(=O)N/N=C/c1cc([N+](=O)[O-])ccc1N1CCOCC1	-2.66
COc1cc(/C=C2\S/C(=N/S(=O)(=O)Cc3ccccc3)NC2=O)c([N+](=O)[O-])cc1OC	10.4
CNC(=O)C(C)NS(=O)(=O)c1ccc(F)cc1 (centres unmarked)	10.5
CN(Cc1ccccc1F)C(=O)c1ccc2c(=O)n3c(nc2c1)CCC3	14.4
O=C(NC1CC1)c1ccc(CS(=O)c2ccc(Br)cc2)o1 (centres unmarked)	13.8
CCSc1ccccc1C(=O)N=C1NC(=O)CC2C(=O)NCCN12 (centres unmarked)	9.8
CC(=O)N1CCN(S(=O)(=O)c2cccc(C(=O)OCC(=O)N3CC(=O)Nc4ccccc43)c2)CC1	19

Source: PMC4336329 (PLoS ONE, 2015)
